Out of some 310,000 compounds screened, about 2,200 (0.71%) showed an effect of 50% or more. The effect is printed as a negative number. Some of the results follow.
What follows are molecules tested against human ether-à-go-go-related gene (hERG) potassium channel (human, UniProt Q12809) (assay: primary screen, population patch clamp on CHO cells stably expressing hERG).
Chain of human ether-à-go-go-related gene (hERG) potassium channel (Q12809 whole entry, looked up): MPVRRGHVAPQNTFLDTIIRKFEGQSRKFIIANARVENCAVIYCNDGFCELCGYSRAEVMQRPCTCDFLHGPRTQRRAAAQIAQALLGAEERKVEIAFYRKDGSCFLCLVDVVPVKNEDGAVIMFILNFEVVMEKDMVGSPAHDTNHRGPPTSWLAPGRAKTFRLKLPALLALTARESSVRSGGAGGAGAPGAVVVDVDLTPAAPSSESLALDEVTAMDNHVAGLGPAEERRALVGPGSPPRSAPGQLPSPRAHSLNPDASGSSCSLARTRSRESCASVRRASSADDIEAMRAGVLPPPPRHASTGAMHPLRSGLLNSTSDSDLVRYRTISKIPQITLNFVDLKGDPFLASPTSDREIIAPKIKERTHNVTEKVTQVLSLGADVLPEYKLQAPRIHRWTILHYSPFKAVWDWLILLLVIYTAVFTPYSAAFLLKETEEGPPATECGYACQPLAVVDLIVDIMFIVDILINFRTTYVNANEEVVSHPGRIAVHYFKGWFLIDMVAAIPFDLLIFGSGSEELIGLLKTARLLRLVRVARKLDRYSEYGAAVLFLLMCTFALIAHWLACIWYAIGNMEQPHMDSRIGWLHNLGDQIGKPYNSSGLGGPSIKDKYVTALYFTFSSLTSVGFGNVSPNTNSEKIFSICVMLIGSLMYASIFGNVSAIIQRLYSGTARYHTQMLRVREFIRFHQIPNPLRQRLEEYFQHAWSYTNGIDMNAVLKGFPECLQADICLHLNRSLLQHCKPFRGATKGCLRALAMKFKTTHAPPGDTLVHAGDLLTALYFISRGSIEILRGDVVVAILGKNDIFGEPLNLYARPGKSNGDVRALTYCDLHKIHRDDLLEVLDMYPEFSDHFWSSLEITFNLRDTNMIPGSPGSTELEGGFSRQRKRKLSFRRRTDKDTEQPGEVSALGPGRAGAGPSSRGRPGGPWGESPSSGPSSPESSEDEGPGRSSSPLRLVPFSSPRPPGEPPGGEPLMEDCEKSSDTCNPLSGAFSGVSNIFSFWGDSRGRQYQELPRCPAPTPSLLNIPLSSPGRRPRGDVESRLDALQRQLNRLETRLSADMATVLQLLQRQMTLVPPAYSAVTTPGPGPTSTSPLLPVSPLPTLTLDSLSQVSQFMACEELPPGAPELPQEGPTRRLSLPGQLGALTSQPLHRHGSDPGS

| SMILES | hERG current change (%, negative = inhibition) at 1uM [%] |
| --- | --- |
| Cc1cccc(Oc2ccc(NC(=O)C3=CC=CN4CCS(=O)(=O)N=C34)cc2)c1 | 9.88 |
| Cn1c(=O)c([N+](=O)[O-])c(NCc2ccccc2)c2ccccc21 | 4.1 |
| Cc1sc(NC(=S)NC(=O)c2cccs2)nc1-c1ccc(C(C)C)cc1 | 10.4 |
| Cn1c(SCc2cccc(F)c2)nnc1-c1ccccn1 | 10.5 |
| Cc1ccc(CSCc2ccc(C(=O)NCC3CCCO3)o2)cc1 (centres unmarked) | -2.71 |
| O=S(=O)(c1ccc(N2CCCC2)nc1)N1CCCC1 | 13 |
| COc1ccc(OCC(=O)N2CCN(C(=O)c3cccc4ccccc34)CC2)cc1 | 9.19 |
| CS(=O)(=O)N(CC(=O)NCC1CCCO1)c1cc(Cl)cc(Cl)c1 (centres unmarked) | 3.81 |
| Cn1ncc(N=Cc2c(O)ccc3ccccc23)c1C(=O)Nc1cccc(Cl)c1 | 9.29 |
| CCCC(=O)Nc1nnc(SCC(=O)N2CCN(c3ccccc3)CC2)s1 | 16.3 |
| C/C=C\C(=O)Nc1cccc(C2=NOC3(C2)C[C@H](C(N)=O)N(C(=O)[C@H]2CCC(=O)N2)C3)c1 (some centres unmarked) | 7.03 |
| COc1ccccc1C(=O)Oc1ccc(N2C(=O)CCC2=O)cc1 | 4.34 |
| Cc1c(OCC(=O)N(C)C)ccc2c3c(c(=O)oc12)CCCCC3 | -0.741 |
| CC1CC(OCC(O)CN2CCCCC2C)CC(C)(C)C1.Cl (centres unmarked) | 0.063 |
| CCOc1ccc(S(=O)(=O)N2CCCC2)cc1 | -1.29 |
| O=C(NNC(=O)C1CC=CCC1)c1cccc(Br)c1 (centres unmarked) | 6.11 |
| NS(=O)(=O)c1cnccc1Nc1cccc(F)c1 | 11.6 |
| CCCc1cc(C(=O)Nc2ccc(C(C)=O)cc2)no1 | 10.5 |
| COC(CNC(=O)c1cc(Sc2nnc(C)s2)nc2ccccc12)OC | 3.39 |
| O=C(NCc1ccccc1)C1(c2cccc(F)c2)CCCC1 | 6.16 |
| O=C1CN(S(=O)(=O)c2cc(Cl)ccc2Cl)CCN1 | 9.56 |
| CCC(=O)Nc1nnc(S(=O)(=O)N(CC)c2ccc(OC)cc2)s1 | 23.9 |
| CCOc1ccccc1CNc1nc2ccccc2n1C | 8.6 |
| COc1ccc(Oc2ccccc2/C=C/C(=O)O)cc1 | 17.1 |
| O=C(CN1CCN(c2cccc(Cl)c2)CC1)Nc1nccs1 | -6.8 |
| CCOC(=O)CC(=O)CSc1nccc(-c2cccnc2)n1 | 10.2 |
